The other results are listed elsewhere or left out.
T1: UNK ZnF1-3 (human, UniProt Q9C0B0 31-174)
T1 sequence: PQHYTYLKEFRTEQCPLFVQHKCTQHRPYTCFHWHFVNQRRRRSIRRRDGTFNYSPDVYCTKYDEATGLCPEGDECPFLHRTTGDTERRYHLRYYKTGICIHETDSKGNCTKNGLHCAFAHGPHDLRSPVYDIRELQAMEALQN

B1: 94800096_94803529_1555_3pUTR_ENSG00000164953_ENST00000453321|human|control|control (ssRNA)
RNA: GGGAGUUCUACAGUCCGACGAUCUUCUCCAUGAUCCAUUUCAUAUGUGACUGAGAAAGAAACCUUCACAGACUGGCUGUUGGCAUCUUUGAUAUCAAUGUCACUGUAGGCAAUGGUGAUUAAGGGAGGGUAGAUGUUUCCAUUCAACAGAGGAUUGAGCAUCA
B2: chr8:104447970:104447971:+_ENSG00000164934_ENST00000297579|hu_hu|hu_hu_hu_mus_False|1_68 (ssRNA)
RNA: GGGAGUUCUACAGUCCGACGAUCAUACACUUCCCUGCUUCGGCUCUUGUCCACAGGAAAGAUUCUAAUAGAUUUAUCAAAGCUGGCAGACACAAAUUCCUUCCCAGUGGGAGAGUAGUCCACAUCAAGUACUGCAGAUACAUGCAACAGAGGAUUGAGCAUCA
B3: chr2:136607347:136607348:+_ENSMUSG00000027273_ENSMUST00000028727|mus_mus|motif|central (ssRNA)
RNA: GGGAGUUCUACAGUCCGACGAUCGAAUAGCCAUGAGGAACCAAAGACAGCACAUUUGGAGAGAUUCAGAGCCUGACACCCGGAGAAAGGAUUGUGGCAGUAGCUCUGUGGAAUGUCACAGUUUUACAAGAACAAUACUGUGUACAACAGAGGAUUGAGCAUCA
B4: chr1:68170538:68170539:-_ENSG00000172380_ENST00000370982|hu_mus|FALSE|FALSE (ssRNA)
RNA: GGGAGUUCUACAGUCCGACGAUCCUUUGCAACGUUCUUUCAUUACCUUUUUUUUUGUACAAAAAUUUCACGGAAAUUUACCUACACAGAGUCAGGAUAAUGAUGUAACUCUGAAGGGAGGGAGCUACCGCAGGAAGUUUCAGGCAACAGAGGAUUGAGCAUCA
B5: chr22:36164377:36164378:-_ENSG00000100320_ENST00000405409|hu_hu|FALSE|FALSE (ssRNA)
RNA: GGGAGUUCUACAGUCCGACGAUCACGGCCCUCUACCACGGUGCCGUGUAAUUUCUCCCUGGCCCUGUCUGCAUCAGCACUAUUCUCGAAAGUUACGAACCCGAAUCCCUUAGAGCCACGUUCAUUAAAGAUUAUUUCUACAUCCAACAGAGGAUUGAGCAUCA
B6: chr15:68825492:68825493:+_ENSMUSG00000022332_ENSMUST00000022954|mus_hu|FALSE|FALSE (ssRNA)
RNA: GGGAGUUCUACAGUCCGACGAUCAAUCACCACAUCGAUGUACUUUUCUUCAUCCUUGCCUUCUCCUUUUUGAAACUUUUCUAUUUCUUGGUUCACCAGGCGCAGGGCGUGCGUGAAGGAGGGGUCCAGGGAGUCCUUCUCCGCCAACAGAGGAUUGAGCAUCA
B7: 98673252_98673528_14220_CDS_ENSMUSG00000048154_ENSMUST00000023741|mouse|control|control (ssRNA)
RNA: GGGAGUUCUACAGUCCGACGAUCAUUCACCAUCUUCUGCUGCACCGAUGGGGGUGGGGUGGGGGGCAGCGACGAGGGUGGUGUCGGCGGGUUACUCAGGUUAUUCUUGGUAAGCAGCUGAGAGUAGUAGUCAGGGCCGGUGUGCAACAGAGGAUUGAGCAUCA
B8: 151023887_151027089_614_3pUTR_ENSMUSG00000058454_ENSMUST00000124340|mouse|control|control (ssRNA)
RNA: GGGAGUUCUACAGUCCGACGAUCCAUUCACCUCAUACUUGUUUACAACCCCUGCUGGAGUAAUGGCACCUUCUUGGACGCCUCCCACAUAACCUGGCAGAAAUCUGUGGCAGAAGUCAGGAAGCCAGGAAUAAAGCAGCACCUCAACAGAGGAUUGAGCAUCA
B9: chr17:65944371:65944372:-_ENSMUSG00000024091_ENSMUST00000024897|mus_mus|FALSE|FALSE (ssRNA)
RNA: GGGAGUUCUACAGUCCGACGAUCGGGCCGCACACAGUACCGGCGAGGUGCUGUAGUCUUCACUUUGAAACACACUUUUCUAUCCGAUGGAUUUUGCAAUUUAAGAUUUGUAGUGACUACAUCUGUGAAGGGGCCUUUGAAUUUCAACAGAGGAUUGAGCAUCA
B10: chr9:64574521:64574522:-_ENSMUSG00000004771_ENSMUST00000172298|mus_hu|FALSE|FALSE (ssRNA)
RNA: GGGAGUUCUACAGUCCGACGAUCACUGCCCUGAGAUGACGUAGAUCACUCUUAUUGCCCACAAGCAUGAUAACAAUGUUACUAUCAGCAUGAUCUCUCAGUUCUUUCAGCCAUCGCUCUACAUUUUCAUAUGUGAGAUGUUUACAACAGAGGAUUGAGCAUCA
B11: chr2:187370260:187370261:+_ENSG00000065548_ENST00000337859|hu_hu|FALSE|FALSE (ssRNA)
RNA: GGGAGUUCUACAGUCCGACGAUCUGCUUUCCCUGCUUUGAAGUCAGCUUUCCUUCUUUCCAUAUCUUGUUCAAGUUUAUCAAUCUUUUCUUGUCUUUUCCUUUUCUUCCAGGCAAGAAAAGAUUCUAGAGUGAUUUUGGUAACCAACAGAGGAUUGAGCAUCA
B12: 127049554_127049674_269_CDS_ENSMUSG00000031979_ENSMUST00000034460|mouse|control|control (ssRNA)
RNA: GGGAGUUCUACAGUCCGACGAUCGACAAAGUCGGCGUAGUCCUUGUUGAUGAGCUCCACCAUGGCCGUCUUCAGCAGCUUGUAAUACAGCUCCAGGUCGUCUCUCAGCUCCUCCAGCUGCACCCGCUUCCUGCAGUCAGACACCAACAGAGGAUUGAGCAUCA
B13: 76621201_76621321_621_3pUTR_ENSG00000089916_ENST00000261530|human|control|control (ssRNA)
RNA: GGGAGUUCUACAGUCCGACGAUCACACUCCAUCCUUUCUUUCCUUCCUGUUUUGCUUAGGAAAGUCCUAUUUUCUGCUGAUUCACACAAUCCGUGGCCUGAUGAGGUCCAGGGAGUAUUCUCCUUCCAGCGGGACAGACGCUGCAACAGAGGAUUGAGCAUCA
B14: 32243022_32243862_1492_3pUTR_ENSMUSG00000024384_ENSMUST00000025243|mouse|control|control (ssRNA)
RNA: GGGAGUUCUACAGUCCGACGAUCGAUUCUCCAAAUAUAUCUGCAAUAAGAUUUUCUUCUUCAUUGCCGGACUCACUGUCACUCCCAAACAGGUCCUUGUCUUCCUUCUUCUUCACAGAAGACUCUUCUUUCCCGGCUUCUUCUCAACAGAGGAUUGAGCAUCA
B15: 5118651_5119987_515_CDS_ENSMUSG00000050697_ENSMUST00000051186|mouse|control|control (ssRNA)
RNA: GGGAGUUCUACAGUCCGACGAUCAUUGGGUGAGCCACAGCUUGUUCUUAAAAAUUCACCAUCUGACAUCAUGUUUGAAAGACCAAAGUCGGCUAUCUUUGCAUUCAUGUGUGCAUCAAGCAGGACGUUCUCAGGUUUCAAAUCCAACAGAGGAUUGAGCAUCA
B16: 135486841_135487110_807_ncRNA_ENSMUSG00000040532_ENSMUST00000154469|mouse|control|control (ssRNA)
RNA: GGGAGUUCUACAGUCCGACGAUCCUACAACAACCAAUCGUUCCACAACAUCUGGCCUCUGCAGUGCCAGGAGCAUGGCUGUCUUUCCUCCCAUGCUGUGGCCAACGAGGACGCAGGGCACCAGACCCAGCUGUGGAAGGAGGCCAACAGAGGAUUGAGCAUCA
B17: 32067658_32067778_2546_3pUTR_ENSMUSG00000039262_ENSMUST00000036691|mouse|control|control (ssRNA)
RNA: GGGAGUUCUACAGUCCGACGAUCGACUUCGGGUGGGGCAGUGAGUAGCCUUUGUUCUGCAGUGCCAUGUAGCCCUCUGGGCUCCACACAGGAGCUGGGUCGAGGGCGGUCACUUUCCGUUCUUGGAGCGAGGGCACACAGUUUCAACAGAGGAUUGAGCAUCA
B18: chr7:149068622:149068623:-_ENSMUSG00000025139_ENSMUST00000001950|mus_hu|mus_mus_mus_hu_False|48_68 (ssRNA)
RNA: GGGAGUUCUACAGUCCGACGAUCGUGAGGCCUCUGAGUGUGGCUUGUGGUCUGUCCUGGGUUAGAGCUGCUGGUAACACGGAACAUACCACUUAAGACGUUCCAGUCCCGCCUGACACCUUCAUUCCCAAUGGAGAAGAAAUCCAACAGAGGAUUGAGCAUCA
B19: chr6:35837335:35837336:-_ENSG00000096063_ENST00000361690|hu_hu|motif|central (ssRNA)
RNA: GGGAGUUCUACAGUCCGACGAUCUUGCUCUUGUUCAUCUUCACAGGGUAUCUCUGCCCGAAUGCUUUCUUGAAGUUGGCGGAUGUGUUGUUCACUGAAUGACUGACCUACAGUUGAGGAAGACUGGCACACCAUGGUGUCUGACAACAGAGGAUUGAGCAUCA
B20: chr3:179287964:179287965:+_ENSG00000136518_ENST00000429709|hu_hu|hu_hu_hu_mus_True|18_48 (ssRNA)
RNA: GGGAGUUCUACAGUCCGACGAUCCUUGAGUGGUGAGAUGGCCUCCAUGUUCUCCCUGGGCACGCGGAGGGCAUUGGUGUCUAUGUAGUAGGUGGGACCGCCCUGCUUGCCUUUGUCGCCAUCUAUUUCCAUCAUUGUACUUCCCAACAGAGGAUUGAGCAUCA
B21: chr2:160604868:160604869:+_ENSG00000136536_ENST00000409591|perfect_dup|motif|central (ssRNA)
RNA: GGGAGUUCUACAGUCCGACGAUCUGAAUCUGACUCAGAGCUAUGAUUGUGGCUAAGAGAUGACAAACCCCAUCUUCGCCGGAGAAAUCGAAAUCCCUGAGAAGCUUCAGAUGCCCUAUUAUCGGGAACUUCAGAAGCUGAUGGCAACAGAGGAUUGAGCAUCA
B22: 7935174_7935294_3058_CDS_ENSG00000183248_ENST00000539422|human|control|control (ssRNA)
RNA: GGGAGUUCUACAGUCCGACGAUCAGCGGCAAGAAGGGGUGGGACCCGUGGAGGGGGCGUGGCCGAAGGAGACAUUGGGGGAGAGGCAGGGGGAGAGGGUGGGACCUGCAGAGGAGGCGCAGCGAGAGGGGGUGGGGCCUGUGGCAACAGAGGAUUGAGCAUCA

The binders below were run against T1, UNK ZnF1-3 (assay: nsRBNS (natural sequence RNA bind-n-seq); RBNS binding buffer (assumed for nsRBNS): 25 mM Tris pH 7.5, 150 mM KCl, 3 mM MgCl2, 0.01% Triton X-100, 500 ug/ml BSA, 20 U/ml SUPERase-In, 4 C; UNK is unkempt and MSI1 is Musashi-1; names of the RNAs are library labels; protein concentration not given here; high values mean tight binding).
Work on B1 yielded a binding signal of 1.02 enrichment R. B2 showed a binding signal of 1.12 enrichment R. For B3, the binding signal was 1.72 enrichment R. B4 was tested, and the binding signal was 1.4 enrichment R. For B5, the binding signal was 1.14 enrichment R. B6 showed a binding signal of 0.997 enrichment R. Work on B7 yielded a binding signal of 0.983 enrichment R. In the case of B8, the binding signal is reported as 1.33 enrichment R. B9 showed a binding signal of 0.838 enrichment R. With B10 the binding signal was 0.625 enrichment R. For B11, the binding signal was 0.408 enrichment R. Binder B12 has a binding signal of 1.36 enrichment R. Work on B13 yielded a binding signal of 0.79 enrichment R. In the case of B14, the binding signal is reported as 0.569 enrichment R. In the case of B15, the binding signal is reported as 1.13 enrichment R. In the case of B16, the binding signal is reported as 0.609 enrichment R. Work on B17 yielded a binding signal of 0.775 enrichment R. B18 showed a binding signal of 0.656 enrichment R. For B19, the binding signal was 0.589 enrichment R. Binder B20 has a binding signal of 0.524 enrichment R. B21 was tested, and the binding signal was 0.586 enrichment R. In the case of B22, the binding signal is reported as 0.675 enrichment R.

From article PMC12136788
